For nine molecules, binding results are on record in paper PMC10193233.

Results are given in words; binding and its absence hold for the method and conditions named. Binding seen in cells or lysates may run through a third protein. Some results given as binding are weak or reduced against the parent protein; the word gives no strength. Tags and fused reporters may be left off the sequences shown.

The chains are these.
T1: Protein A-tagged Nem1 (S. cerevisiae) (UniProt P38757)
T1 sequence: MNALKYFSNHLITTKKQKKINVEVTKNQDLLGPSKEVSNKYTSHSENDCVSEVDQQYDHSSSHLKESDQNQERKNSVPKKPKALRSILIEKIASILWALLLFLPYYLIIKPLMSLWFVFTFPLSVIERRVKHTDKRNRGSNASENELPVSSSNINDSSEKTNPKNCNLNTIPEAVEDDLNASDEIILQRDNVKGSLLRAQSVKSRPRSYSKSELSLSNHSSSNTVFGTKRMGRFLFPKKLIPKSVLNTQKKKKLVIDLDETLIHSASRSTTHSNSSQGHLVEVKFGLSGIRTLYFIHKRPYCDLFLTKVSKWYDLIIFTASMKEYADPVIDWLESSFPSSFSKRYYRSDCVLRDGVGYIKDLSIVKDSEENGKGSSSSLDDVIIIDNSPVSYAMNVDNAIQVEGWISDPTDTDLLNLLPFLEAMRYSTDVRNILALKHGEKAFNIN

B1: Spo7 ΔCR3 (215–223) (protein, UniProt P18410)
chain: MEPESIGDVGNHAQDDSASIVSGPRRRSTSKTSSAKNIRNSSNISPASMIFRNLLILEDDLRRQAHEQKILKWQFTLFLASMAGVGAFTFYELYFTSDYVKGLHRVILQFTLSFISITVVLFHISGQYRRTIVIPRRFFTSTNKGIRQFNVKLVKVQSTWDEKYTDSVRFVSRTIAYCNIYCLKKFLWLKDDNAIVKFWKSVTIQSQPRIGAVDFSAEIREGWEIYRDEFWAREGARRRKQAHELRPKSE
B2: Spo7 (WT) (protein, UniProt P18410 1-259)
chain: MEPESIGDVGNHAQDDSASIVSGPRRRSTSKTSSAKNIRNSSNISPASMIFRNLLILEDDLRRQAHEQKILKWQFTLFLASMAGVGAFTFYELYFTSDYVKGLHRVILQFTLSFISITVVLFHISGQYRRTIVIPRRFFTSTNKGIRQFNVKLVKVQSTWDEKYTDSVRFVSRTIAYCNIYCLKKFLWLKDDNAIVKFWKSVTIQSQPRIGAVDVKLVLNPRAFSAEIREGWEIYRDEFWAREGARRRKQAHELRPKSE
B3: Spo7 S141A/T142A/N143A (protein, UniProt P18410 1-259)
chain: MEPESIGDVGNHAQDDSASIVSGPRRRSTSKTSSAKNIRNSSNISPASMIFRNLLILEDDLRRQAHEQKILKWQFTLFLASMAGVGAFTFYELYFTSDYVKGLHRVILQFTLSFISITVVLFHISGQYRRTIVIPRRFFTAAAKGIRQFNVKLVKVQSTWDEKYTDSVRFVSRTIAYCNIYCLKKFLWLKDDNAIVKFWKSVTIQSQPRIGAVDVKLVLNPRAFSAEIREGWEIYRDEFWAREGARRRKQAHELRPKSE
B4: Spo7 L219A (protein, UniProt P18410 1-259)
chain: MEPESIGDVGNHAQDDSASIVSGPRRRSTSKTSSAKNIRNSSNISPASMIFRNLLILEDDLRRQAHEQKILKWQFTLFLASMAGVGAFTFYELYFTSDYVKGLHRVILQFTLSFISITVVLFHISGQYRRTIVIPRRFFTSTNKGIRQFNVKLVKVQSTWDEKYTDSVRFVSRTIAYCNIYCLKKFLWLKDDNAIVKFWKSVTIQSQPRIGAVDVKLVANPRAFSAEIREGWEIYRDEFWAREGARRRKQAHELRPKSE
B5: Spo7 L217R (protein, UniProt P18410 1-259)
chain: MEPESIGDVGNHAQDDSASIVSGPRRRSTSKTSSAKNIRNSSNISPASMIFRNLLILEDDLRRQAHEQKILKWQFTLFLASMAGVGAFTFYELYFTSDYVKGLHRVILQFTLSFISITVVLFHISGQYRRTIVIPRRFFTSTNKGIRQFNVKLVKVQSTWDEKYTDSVRFVSRTIAYCNIYCLKKFLWLKDDNAIVKFWKSVTIQSQPRIGAVDVKRVLNPRAFSAEIREGWEIYRDEFWAREGARRRKQAHELRPKSE
B6: Spo7 L217A (protein, UniProt P18410 1-259)
chain: MEPESIGDVGNHAQDDSASIVSGPRRRSTSKTSSAKNIRNSSNISPASMIFRNLLILEDDLRRQAHEQKILKWQFTLFLASMAGVGAFTFYELYFTSDYVKGLHRVILQFTLSFISITVVLFHISGQYRRTIVIPRRFFTSTNKGIRQFNVKLVKVQSTWDEKYTDSVRFVSRTIAYCNIYCLKKFLWLKDDNAIVKFWKSVTIQSQPRIGAVDVKAVLNPRAFSAEIREGWEIYRDEFWAREGARRRKQAHELRPKSE
B7: Spo7 L219R (protein, UniProt P18410 1-259)
chain: MEPESIGDVGNHAQDDSASIVSGPRRRSTSKTSSAKNIRNSSNISPASMIFRNLLILEDDLRRQAHEQKILKWQFTLFLASMAGVGAFTFYELYFTSDYVKGLHRVILQFTLSFISITVVLFHISGQYRRTIVIPRRFFTSTNKGIRQFNVKLVKVQSTWDEKYTDSVRFVSRTIAYCNIYCLKKFLWLKDDNAIVKFWKSVTIQSQPRIGAVDVKLVRNPRAFSAEIREGWEIYRDEFWAREGARRRKQAHELRPKSE
B8: Spo7 S141R/T142R/N143R (protein, UniProt P18410 1-259)
chain: MEPESIGDVGNHAQDDSASIVSGPRRRSTSKTSSAKNIRNSSNISPASMIFRNLLILEDDLRRQAHEQKILKWQFTLFLASMAGVGAFTFYELYFTSDYVKGLHRVILQFTLSFISITVVLFHISGQYRRTIVIPRRFFTRRRKGIRQFNVKLVKVQSTWDEKYTDSVRFVSRTIAYCNIYCLKKFLWLKDDNAIVKFWKSVTIQSQPRIGAVDVKLVLNPRAFSAEIREGWEIYRDEFWAREGARRRKQAHELRPKSE
B9: Spo7 ΔCR2 (127–143) (protein, UniProt P18410)
chain: MEPESIGDVGNHAQDDSASIVSGPRRRSTSKTSSAKNIRNSSNISPASMIFRNLLILEDDLRRQAHEQKILKWQFTLFLASMAGVGAFTFYELYFTSDYVKGLHRVILQFTLSFISITVVLFHISGKGIRQFNVKLVKVQSTWDEKYTDSVRFVSRTIAYCNIYCLKKFLWLKDDNAIVKFWKSVTIQSQPRIGAVDVKLVLNPRAFSAEIREGWEIYRDEFWAREGARRRKQAHELRPKSE

This experiment deals with T1, Protein A-tagged Nem1 (S. cerevisiae). Description: co-IP; protein A-tagged Nem1 coexpressed with Spo7 (WT or mutant) in nem1Δ spo7Δ pah1Δ yeast; Nem1-PtA isolated from cell extracts by IgG-Sepharose affinity chromatography; immunoblot with anti-Nem1 and anti-Spo7; complex scored by presence of Spo7 in the affinity-purified Nem1 preparation.
Regarding B1, the binding entry is “no binding”.
Take B2: the binding result is on record as “binds”.
Under B3 stands “binds”; under B4, “binds”; under B5, “no binding”.
As for B6, the binding entry was “binds”.
Consider B7, for which the binding result is given as “no binding”.
The value for B8 was “no binding”.
Turning to B9, the binding entry is “no binding”.
